Data as given in PubChem BioAssay (NCATS).
Inconclusive results, whose numbers are uncertain, are shown with a selection of clear calls. For some assays here: A potency beside an inconclusive call is a rough fit, not a confirmed value. Calls of active or inactive are those of the source. The call rests on the fitted dose curve; in most records, active means well fitted curve in the direction sought with a large enough effect; inconclusive means small, poorly fitted or top-dose-only effect, or another doubt; inactive means no such curve, though single readings can be large; an effect the other way counts as inactive or inconclusive.

Legend:
[1] = P-glycoprotein substrates identified in KB-8-5-11 adenocarcinoma cell line, qHTS therapeutic library screen (AID 1346987); further: potency means the concentration at half of the fitted maximal effect; nearly all actives have a fitted effect of over 65% in size
Method in brief: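 Steps: plate 500 KB-8-5-11 cells/well in DMEM + 10% FCS (colchicine removed); pin compounds in dose-response; incubate 72 h, 37 degree C, 5% CO2; add CellTiter-Glo, 5 min; read luminescence.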

[2] = system: Zika virus NS2B-NS3 protease (unlinked complex); assay: Primary screen GU Rhodamine qHTS for Zika virus inhibitors: Unlinked NS2B-NS3 protease assay (AID 1347159); further: nearly all actives have a fitted effect of over 60% in size
Method in brief: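 Noncovalent NS2B hydrophilic domain–NS3 protease domain complex (25 nM) preincubated 15 min at room temperature with compounds (up to 114 microM) in 10 mM Tris-HCl pH 8.0, 0.01% Tween 20; 1.5 microM Rhodamine110 substrate added, fluorescence change over 15 min fitted to Hill equation.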

[3] = system: CRL-7250; assay: Cytotoxic Profiling of Annotated Libraries Using Quantitative High-Throughput Screening (AID 1296008); conditions: Five cell lines viability, CellTiter-Glo ATP luminescence, 48-72 h; max response: active compounds read low; further: potency means the concentration at half of the fitted maximal effect; nearly all actives have a fitted effect of over 60% in size
Method in brief: (§1)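 Compounds were pin-transferred onto cells and incubated 48 or 72 hr at 37 degree Celsius, 95% humidity. CellTiter-Glo was added, plates sat 10 min at room temperature, then ATP-coupled luminescence was imaged as the viability read-out.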

[4] = system: HaCat; assay: as above; conditions: Five cell lines viability, CellTiter-Glo ATP luminescence, 48-72 h; max response: active compounds read low
Method in brief: as §1

[5] = system: NIH3T3; assay: as above; conditions: Five cell lines viability, CellTiter-Glo ATP luminescence, 48-72 h; max response: active compounds read low
Method in brief: as §1

[6] = system: C33A; assay: Primary qHTS to identify gynecologic anti-cancer compounds using libraries of approved drugs and bioactive compounds (AID 1345084); conditions: Gynecologic cancer cell panel viability, ATPlite luminescence, 48 h; series mostly up to 57.5 µM; further: nearly all actives have a fitted effect of over 55% in size; further: potency means the concentration at half of the fitted maximal effect
Method in brief: (§2)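 ATP-based viability (ATPlite), 1,000 cells/well, 16 h pre-incubation, 48 h compound at 37 C, 5% CO2, 15 min RT before read.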

[7] = system: CAOV3; assay: as above; conditions: Gynecologic cancer cell panel viability, ATPlite luminescence, 48 h; activity change, negative = cytotoxicity: at 57.5 µM (top of the series)
Method in brief: as §2

[8] = system: CASKI; assay: as above; conditions: Gynecologic cancer cell panel viability, ATPlite luminescence, 48 h; series mostly up to 57.5 µM
Method in brief: as §2

[9] = system: Es-2; assay: as above; conditions: Gynecologic cancer cell panel viability, ATPlite luminescence, 48 h; series mostly up to 57.5 µM
Method in brief: as §2

[10] = system: HeLa; assay: as above; conditions: Gynecologic cancer cell panel viability, ATPlite luminescence, 48 h; activity change, negative = cytotoxicity: at 57.5 µM (top of the series)
Method in brief: as §2

[11] = system: Hek293T; assay: as above; conditions: Gynecologic cancer cell panel viability, ATPlite luminescence, 48 h, control line for the selectivity index; activity change, negative = cytotoxicity: at 57.5 µM (top of the series) unless noted
Method in brief: as §2

[12] = system: JEG-3; assay: as above; conditions: Gynecologic cancer cell panel viability, ATPlite luminescence, 48 h; series mostly up to 57.5 µM
Method in brief: as §2

[13] = system: PA-1; assay: as above; conditions: Gynecologic cancer cell panel viability, ATPlite luminescence, 48 h; series mostly up to 57.5 µM
Method in brief: as §2

[14] = system: SKOV3; assay: as above; conditions: Gynecologic cancer cell panel viability, ATPlite luminescence, 48 h; series mostly up to 57.5 µM
Method in brief: as §2

[15] = system: Tov112D; assay: as above; conditions: Gynecologic cancer cell panel viability, ATPlite luminescence, 48 h; series mostly up to 57.5 µM
Method in brief: as §2

[16] = Primary qHTS for inhibitors of nuclear receptor binding SET domain protein 2 (NSD2) in an isogenic RCH-ACV NSD2 p.E1099K mutant (9B) (AID 1645876); further: potency means the concentration at half of the fitted maximal effect; nearly all actives have a fitted effect of over 70% in size
[17] = Primary qHTS for inhibitors of nuclear receptor binding SET domain protein 2 (NSD2) in an RCH-ACV wild type WT cells (2C) (AID 1645877); conditions: activity change, negative = cell killing: at 44.9 µM (top of the series) unless noted; further: potency means the concentration at half of the fitted maximal effect; nearly all actives have a fitted effect of over 70% in size
[18] = system: KB-3-1; assay: Cytotoxic Profiling of Annotated Libraries Using Quantitative High-Throughput Screening (AID 1296008); conditions: Five cell lines viability, CellTiter-Glo ATP luminescence, 48-72 h; max response: active compounds read low; further: potency means the concentration at half of the fitted maximal effect; nearly all actives have a fitted effect of over 60% in size
Method in brief: as §1

[19] = system: OV90; assay: Primary qHTS to identify gynecologic anti-cancer compounds using libraries of approved drugs and bioactive compounds (AID 1345084); conditions: Gynecologic cancer cell panel viability, ATPlite luminescence, 48 h; series mostly up to 57.5 µM; further: nearly all actives have a fitted effect of over 55% in size; further: potency means the concentration at half of the fitted maximal effect
Method in brief: as §2

[20] = system: Tov-21-G; assay: as above; conditions: Gynecologic cancer cell panel viability, ATPlite luminescence, 48 h; activity change, negative = cytotoxicity: at 57.5 µM (top of the series) unless noted
Method in brief: as §2

Measured: Potency
Tags describe the fitted curve by direction and shape.

CC1(C)CC(=O)C2=C(C1)NC(=S)NC2c1cccc(O)c1 (stereo not given)
active: [1] 5.8 µM | [7] 3.55 µM | [10] 7.94 µM | [15] 0.891 µM
inactive: [2]
inconclusive: [3] 3.66 µM [inhibitor, partial curve] | [4] 29.1 µM [inhibitor, single point] | [5] 0.651 µM [inhibitor, full curve] | [6] 10 µM [cytotoxic, partial curve] | [8] 7.08 µM [cytotoxic, full curve] | [9] 3.16 µM [cytotoxic, full curve] | [11] 1.26 µM [cytotoxic, full curve] | [12] 3.55 µM [cytotoxic, full curve] | [13] 2.24 µM [cytotoxic, full curve, poor fit] | [14] 2 µM [cytotoxic, full curve, poor fit]

C=C1C(=O)OC2/C=C(\C)CC3C=C(CC/C=C(\C)CCC12)C(=O)O3 (stereo not given)
active: [16] 12.7 µM | [17] 4.5 µM
inconclusive: [1] 12.8 µM [inhibitor, single point] | [3] 16.1 µM [inhibitor, single point] | [4] 20.2 µM [inhibitor, single point] | [18] 11.4 µM [inhibitor, single point] | [19] 10 µM [cytotoxic, partial curve] | [14] 31.6 µM [cytotoxic, single point] | [20] 10 µM [cytotoxic, partial curve, poor fit]

NC(=O)c1cnc(NCCc2ccc(O)c(Cl)c2)nc1NCc1ccccc1
inactive: [7]
active: [1] 10.3 µM | [3] 7.31 µM | [4] 14.6 µM | [18] 16.4 µM | [9] 15.8 µM | [11] 20 µM | [13] 10 µM | [15] 12.6 µM
inconclusive: [8] 22.4 µM [cytotoxic, single point] | [14] 35.5 µM [cytotoxic, single point]
